± gives the standard deviation of the averaged measurements. The full ranking holds about 33,000 sequences; the median of “E-score (dimensionless, -0.5 to 0.5)” is about -0.049, and the highest 2% start at about 0.37. The list shows a part of the results.
tested on: T1, PmTbr T-box DNA-binding domain (GST fusion); assay: PBM E-score of 8-mer (E-score (dimensionless, -0.5 to 0.5)); Tbr is Tbrain of the sea star Patiria miniata (Pm) or the sea urchin Strongylocentrotus purpuratus (Sp); higher = stronger binding preference; most listed sequences are background and not binding sites; conditions: the construct has about 5 more residues each side
T1 sequence: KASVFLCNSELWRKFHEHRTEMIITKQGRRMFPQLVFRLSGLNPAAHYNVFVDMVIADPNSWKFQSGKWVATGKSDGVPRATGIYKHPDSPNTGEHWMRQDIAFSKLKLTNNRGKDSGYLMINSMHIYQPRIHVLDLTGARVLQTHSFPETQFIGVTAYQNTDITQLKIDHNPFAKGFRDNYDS
Procedure, shortened: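 GST-fused Tbr T-box DNA-binding domains (the whole T-box plus about five flanking residues) were expressed in BL21 E. coli at 20 °C and purified by glutathione affinity chromatography. Universal Agilent oligonucleotide arrays were made double-stranded by primer extension, incubated with 200 nM protein in PBS (pH 7.5), then scanned and quantified. Every ungapped 8-mer was scored from probe intensities. The Universal PBM Analysis Suite gave each word an enrichment E-score, averaged over duplicate arrays.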

Row | Sequence | PBM E-score of 8-mer
1 | AGAGCCCC | 0.0265 ± 0.036
2 | ACACTTGA | 0.369 ± 0.029
3 | CCACATAC | 0.0347 ± 0.077
4 | GAAAGTAC | -0.114 ± 0.11
5 | GGAGCGAA | -0.015 ± 0.018
6 | ATGGCATC | -0.137 ± 0.03
7 | AGATTTCA | 0.0541 ± 0.015
8 | TATTAAGA | -0.121 ± 0.19
9 | GTATTTGA | -0.153 ± 0.03
10 | ATCTATTC | 0.0376 ± 0.064
11 | CGTCGCAC | 0.332 ± 0.021
12 | ACGGGATG | -0.0745 ± 0.051
13 | CCTGTTCC | -0.185 ± 0.093
14 | GGGCAGTA | -0.118 ± 0.073
15 | GGGTCACA | 0.188 ± 0.011
16 | CGGTACGC | 0.005 ± 0.0049
17 | CGCCATAA | 0.185 ± 0.073
18 | GAGAACAC | 0.249 ± 0.052
19 | GAACCACA | -0.0723 ± 0.062
20 | TCGAAGCA | -0.141 ± 0.0046
21 | ACCCAGAT | -0.112 ± 0.093
22 | ATAAGTCC | -0.249 ± 0.035

Row | Sequence | PBM E-score of 8-mer
23 | CGGACGTC | -0.149 ± 0.0048
24 | GACGTGAC | 0.268 ± 0.017
25 | TACGGACA | -0.228 ± 0.053
26 | AGAATGTC | -0.2747 ± 0.0016
27 | ATCTTGTA | -0.2 ± 0.023
28 | ACACAATA | 0.252 ± 0.029
29 | TACACGCA | 0.0912 ± 0.0092
30 | TAAGCCAA | -0.357 ± 0.021
31 | GACAGTGA | 0.207 ± 0.01
32 | GAAAGCGA | 0.0498 ± 0.021
33 | AACTGCTA | 0.172 ± 0.069
34 | GATCTAGA | -0.0675 ± 0.032
35 | ACATCCAT | 0.0578 ± 0.00084
36 | AACTAAGA | -0.0524 ± 0.013
37 | AGCCTCTG | -0.136 ± 0.042
38 | CCCAAAGA | -0.203 ± 0.003
39 | CAGGTGTC | 0.4791 ± 0.0044
40 | CGCCAAAC | 0.222 ± 0.027
41 | GAACCTAA | -0.243 ± 0.1
42 | GGAGGGAA | -0.244 ± 0.035
43 | CAGACAGG | -0.114 ± 0.043
44 | CCTATACC | -0.274 ± 0.026

Row | Sequence | PBM E-score of 8-mer
45 | AGATTGGA | -0.0814 ± 0.028
46 | GGCGATCA | -0.0128 ± 0.04
47 | GAAGATGC | -0.163 ± 0.0058
48 | AATACAAA | -0.159 ± 0.014
49 | ACGCGGTG | 0.208 ± 0.043
50 | AAGGGCTG | -0.207 ± 0.014
51 | CCGATATC | 0.116 ± 0.028
52 | AATTGCCA | 0.176 ± 0.021
53 | ATTGTCCG | -0.19 ± 0.031
54 | CCATAGCG | 0.032 ± 0.0043
55 | CGCATCGA | 0.0587 ± 0.0012
56 | TATCACCA | 0.269 ± 0.022
57 | AGCCAGCT | -0.0543 ± 0.14
58 | GGTACAAA | -0.0717 ± 0.0055
59 | CTCGATGA | -0.115 ± 0.021
60 | TAAAGCAA | -0.288 ± 0.019
61 | CATTGCAA | -0.162 ± 0.048
62 | CTCGCCCA | -0.0934 ± 0.15
63 | AGGACGAA | -0.207 ± 0.043
64 | AATGCCGT | -0.148 ± 0.026
65 | CGCAGTAG | -0.134 ± 0.0021
66 | CATGAGCC | -0.154 ± 0.071

Row | Sequence | PBM E-score of 8-mer
67 | AATCACTA | -0.0999 ± 0.0071
68 | ATTGGGGA | -0.197 ± 0.0079
69 | TGCAGCCA | 0.00329 ± 0.0089
70 | AGCCTTCA | -0.219 ± 0.055
71 | CTAGTGAC | 0.26 ± 0.027
72 | GCTTAACC | 0.0352 ± 0.043
73 | AACCACTA | 0.0474 ± 0.023
74 | GAGTAAGA | -0.149 ± 0.095
75 | GGACGGGA | -0.179 ± 0.0074
76 | GTTCCTGA | 0.0418 ± 0.022
77 | AGTGACGC | 0.3 ± 0.05
78 | AATATGAT | -0.165 ± 0.057
79 | CGCTTTTA | -0.114 ± 0.1
80 | ATCACGGC | 0.0908 ± 0.0041
81 | AGTGCAGC | -0.0478 ± 0.021
82 | ACGATCGA | -0.0138 ± 0.025
83 | CTAGAGGC | -0.143 ± 0.012
84 | CCGTCTCG | -0.0597 ± 0.066
85 | GTGCCGGA | 0.119 ± 0.052
86 | CTGTCGGA | 0.101 ± 0.044
87 | GGCATAAC | -0.0559 ± 0.021
88 | AACATGGG | -0.0997 ± 0.059

Row | Sequence | PBM E-score of 8-mer
89 | AGATGCTA | 0.0692 ± 0.038
90 | ACACGTGG | 0.307 ± 0.022
91 | AAATGCAT | -0.134 ± 0.011
92 | ATGACAGG | -0.00481 ± 0.016
93 | ACAAGTCA | 0.108 ± 0.036
94 | AGCAAGGC | -0.0115 ± 0.038
95 | CCAATCGC | 0.119 ± 0.036
96 | TCCAGCCA | -0.0544 ± 0.058
97 | ACCCTTGG | 0.0547 ± 0.038
98 | TACAGTGA | 0.133 ± 0.051
99 | TGCAGGCA | -0.0674 ± 0.13
100 | AACTTGCT | -0.046 ± 0.09
101 | TATTCCGA | -0.274 ± 0.013
102 | CGCATAAC | 0.0175 ± 0.069
103 | ATTACGTC | -0.181 ± 0.016
104 | TACTGCAA | 0.0487 ± 0.026
105 | ACCTGGAG | 0.0832 ± 0.12
106 | GCTCGACA | 0.198 ± 0.029
107 | CAGGCCTC | -0.19 ± 0.003
108 | CGAAACAC | 0.296 ± 0.011
109 | GACTTCCC | -0.0361 ± 0.067

Reference: the supplement of paper PMC4166925
